# Literature values as cited in patent US8058242B2, “Chimeric proteins with natriuretic activity” (The University of Queensland, priority 2004, dated 2011).
# Test system: conscious rabbits
# Settings: doses of 1, 2, and 4 μg/kg/min (Woods et al., 1989); cited from earlier work
structure (smiles),measurement,value
"CC[C@H](C)[C@@H]1NC(=O)[C@H](CCCNC(=N)N)NC(=O)[C@H](CC(=O)O)NC(=O)[C@H](CCSC)NC(=O)[C@H](CCCNC(=N)N)NC(=O)CNC(=O)CNC(=O)[C@H](Cc2ccccc2)NC(=O)[C@@H](NC(=O)[C@H](CO)NC(=O)[C@H](CO)NC(=O)[C@H](CCCNC(=N)N)NC(=O)[C@H](CCCNC(=N)N)NC(=O)[C@H](CC(C)C)NC(=O)[C@@H](N)CO)CSSC[C@@H](C(=O)N[C@@H](CC(N)=O)C(=O)N[C@@H](CO)C(=O)N[C@@H](Cc2ccccc2)C(=O)N[C@@H](CCCNC(=N)N)C(=O)N[C@@H](Cc2ccc(O)cc2)C(=O)O)NC(=O)CNC(=O)[C@H](CC(C)C)NC(=O)CNC(=O)[C@H](CO)NC(=O)[C@H](CCC(N)=O)NC(=O)[C@H](C)NC(=O)CNC1=O [hANP, reference compound]",maximum reduction in blood pressure,14%
